Laboratory results taken from US20250179139A1 (CENTRO DE INMUNOLOG A MOLECULAR, published 2025).
Numbering of substitutions follows the chain as printed. Names and notes keep the numbering of the source.

T1: recombinant extracellular domain of the human IL-2 receptor beta subunit (human, UniProt P14784 27-240)
T1 construct: extracellular domain; also called beta chain of the IL-2 receptor; beta subunit of the receptor
T1 sequence (looked up): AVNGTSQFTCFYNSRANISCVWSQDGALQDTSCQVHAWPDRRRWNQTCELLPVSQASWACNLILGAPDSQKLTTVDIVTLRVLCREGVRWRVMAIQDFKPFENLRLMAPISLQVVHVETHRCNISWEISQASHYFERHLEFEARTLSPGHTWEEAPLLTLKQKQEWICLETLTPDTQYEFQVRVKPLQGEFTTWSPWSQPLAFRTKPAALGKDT

T2: dimeric beta/gamma IL-2 receptor on purified mouse CD8+ T cells (mouse, UniProt P16297 27-539; P34902 23-369)
T2 sequence (looked up) 1: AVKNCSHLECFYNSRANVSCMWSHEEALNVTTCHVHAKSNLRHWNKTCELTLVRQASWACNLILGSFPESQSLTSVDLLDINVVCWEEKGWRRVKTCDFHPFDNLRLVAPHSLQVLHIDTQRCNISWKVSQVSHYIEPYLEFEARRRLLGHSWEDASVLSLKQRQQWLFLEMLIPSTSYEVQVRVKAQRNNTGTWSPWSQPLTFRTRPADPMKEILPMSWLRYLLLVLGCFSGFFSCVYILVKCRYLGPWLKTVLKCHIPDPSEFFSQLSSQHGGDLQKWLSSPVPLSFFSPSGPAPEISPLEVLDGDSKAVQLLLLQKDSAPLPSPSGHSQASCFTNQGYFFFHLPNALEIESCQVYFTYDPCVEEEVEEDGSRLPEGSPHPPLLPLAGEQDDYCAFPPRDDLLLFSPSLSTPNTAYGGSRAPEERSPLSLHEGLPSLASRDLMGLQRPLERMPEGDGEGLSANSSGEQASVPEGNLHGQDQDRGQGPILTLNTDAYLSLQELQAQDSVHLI
T2 sequence (looked up) 2: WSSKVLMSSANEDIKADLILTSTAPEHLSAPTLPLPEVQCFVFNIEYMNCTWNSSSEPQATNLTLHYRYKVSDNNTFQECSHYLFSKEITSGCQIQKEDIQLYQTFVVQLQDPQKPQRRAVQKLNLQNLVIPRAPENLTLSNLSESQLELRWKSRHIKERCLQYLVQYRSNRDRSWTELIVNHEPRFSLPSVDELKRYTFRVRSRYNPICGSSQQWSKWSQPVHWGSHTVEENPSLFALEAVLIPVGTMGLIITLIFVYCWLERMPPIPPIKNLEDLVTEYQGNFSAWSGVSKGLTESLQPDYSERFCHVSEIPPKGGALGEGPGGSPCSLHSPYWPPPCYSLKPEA

B1: 80VPPEDLIA87+I92L human Fc fusion protein (SEQ ID NO. 119) (Fc fusion)
chain: APTSSSTKKTQLQLEHLLLDLQMILNGINNYKNPELTRMLTFKFYMPKKATELKHLQCLEEELKPLEEVLNLAQSKNFHVPPEDLIANINVLVLELKGSETTFMCEYADETATIVEFLNRWITFSQSIISTLTAS[human IgG1 Fc with L358V (EU numbers) omitted]
notes: also called 80VPPEDLIA +I92L87
B2: 80FDPEDVVE87+I92L human Fc fusion protein (SEQ ID NO. 122) (Fc fusion)
chain: B1 chain with V80F, P81D, L85V, I86V, A87E
notes: also called 80FDPEDVVE +I92L87
B3: 80FDPHDVVE87+I92L+V93L human Fc fusion protein (SEQ ID NO. 118) (Fc fusion)
chain: B1 chain with V80F, P81D, E83H, L85V, I86V, A87E, V93L
notes: also called 80FDPHVVE +I92L87
B4: 80FDPADVVE87+I92L human Fc fusion protein (SEQ ID NO. 121) (Fc fusion)
chain: B1 chain with V80F, P81D, E83A, L85V, I86V, A87E
notes: also called 80FDPADVVE +I92L87
B5: 80VPPEDLIE87+I92L human Fc fusion protein (SEQ ID NO. 120) (Fc fusion)
chain: B1 chain with A87E
notes: also called 80VPPEDLIE +I92L87
B6: 81DPQDLIE87+I92L human Fc fusion protein (SEQ ID NO. 116) (Fc fusion)
chain: B1 chain with V80L, P81D, E83Q, A87E
notes: also called 81DPQDLIE +I92L87
B7: 81VPEDLIE87 human Fc fusion protein (SEQ ID NO. 115) (Fc fusion)
chain: B1 chain with V80L, P81V, A87E, L92I
B8: 81DPQDLIE87 human Fc fusion protein (SEQ ID NO. 114) (Fc fusion)
chain: B1 chain with V80L, P81D, E83Q, A87E, L92I
notes: If it is the whole fusion, the Fc part is redundant
B9: 81VPEDLIE87+I92L human Fc fusion protein (SEQ ID NO. 117) (Fc fusion)
chain: B1 chain with V80L, P81V, A87E
notes: also called 81VPEDLIE +I92L87
B10: H9/Fc (K35E) fusion protein (Fc fusion, human)
chain: B1 chain with V80F, P81D, E83R, L85V, I86V, A87S, L92F

What follows are binders tested against T1, recombinant extracellular domain of the … (assay: BIAcore (SPR)).

fold reduction of KD relative to the fusion protein with superkine H9 [fold]	fold reduction of KD relative to the fusion protein with unmutated IL-2 [fold]	Binder
> 3	> 90	B1
> 3	> 90	B2
> 3	> 90	B3
> 3	> 90	B4
> 3	> 90	B5

What follows are binders tested against T1, recombinant extracellular domain of the … (assay: ELISA, fusion protein at 60 ng/ml on plate coated with the beta subunit extracellular domain; anti-human Fc antibody-HRP; Abs 490 nm).

binding result	Binder
binds	B6
binds	B7
binds	B8
binds	B9

Each binder was assayed against T1, recombinant extracellular domain of the … (assay: ELISA, Fc fusions at 30 ng/ml on coated beta chain extracellular domain, anti-human Fc-HRP).

ELISA binding capacity, percent higher than the H9 superkine fusion protein [%]	Binder
≥ 50	B1
≥ 50	B2
≥ 50	B3
≥ 50	B4
≥ 50	B5

Each binder was assayed against T1, recombinant extracellular domain of the … (assay: BIAcore (SPR); format not stated).

Kd [nM]	koff [s⁻¹]	kon [M⁻¹ s⁻¹]	Binder
0.8	0.000349	436000	B1
0.29	0.000273	946000	B2
1.12	0.000266	238000	B3
0.54	0.000461	858000	B4
0.37	0.000304	816000	B5

Each binder was assayed against T2, dimeric beta/gamma IL-2 receptor on … (assay: cell-based or functional assay).

Proportion of proliferating purified CD8+ T cells (%)	Binder
94	B10
94.3	B1
95.9	B2
94.5	B4
93.5	B5
